According to PMC3376741:
No constants are given. Whether binding was seen depends on the method and setting. Binding seen in cells or lysates may run through a third protein. Some entries that bind do so weakly or less than the wild type. Where a sequence is shown, tags or fusion partners need not be part of it.

How the values were obtained:
[1] = target: T1, GST::Borr_(118–315) (Drosophila) (UniProt Q9VLD6); assay: pull-down; GST-tagged protein purified from bacteria on glutathione sepharose beads; partner translated in vitro and [35S] methionine-labelled; NET-N+ buffer (50 mM Tris-HCl pH 7.4, 150 mM NaCl, 5 mM EDTA, 0.5% NP-40), in ice 30 min; five washes; exposed to X-ray film; only the target purified
T1 sequence: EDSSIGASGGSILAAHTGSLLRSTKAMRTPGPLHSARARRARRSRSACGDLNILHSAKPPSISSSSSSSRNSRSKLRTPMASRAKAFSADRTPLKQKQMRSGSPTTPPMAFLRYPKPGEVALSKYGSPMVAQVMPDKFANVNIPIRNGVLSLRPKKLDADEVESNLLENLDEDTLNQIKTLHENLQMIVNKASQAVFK

[2] = target: T2, GST::Borr full-length Borr_(1–315) (Drosophila) (UniProt Q9VLD6); assay: as above
T2 sequence: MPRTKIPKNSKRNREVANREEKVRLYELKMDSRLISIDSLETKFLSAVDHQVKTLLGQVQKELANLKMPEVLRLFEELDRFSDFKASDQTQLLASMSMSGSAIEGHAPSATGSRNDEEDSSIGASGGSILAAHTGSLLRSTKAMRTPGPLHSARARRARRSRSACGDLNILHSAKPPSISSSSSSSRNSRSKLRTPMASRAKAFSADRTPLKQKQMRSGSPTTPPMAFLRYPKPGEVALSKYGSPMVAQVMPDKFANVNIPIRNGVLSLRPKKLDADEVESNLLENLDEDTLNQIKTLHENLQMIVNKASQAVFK

[3] = target: T3, GST::Borr_(250–315) (Drosophila) (UniProt Q9VLD6); assay: as above
T3 sequence: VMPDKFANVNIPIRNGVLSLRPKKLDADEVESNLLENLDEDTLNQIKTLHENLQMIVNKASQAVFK

[4] = target: T4, GST::Borr_(118–249) (Drosophila) (UniProt Q9VLD6); assay: as above
T4 sequence: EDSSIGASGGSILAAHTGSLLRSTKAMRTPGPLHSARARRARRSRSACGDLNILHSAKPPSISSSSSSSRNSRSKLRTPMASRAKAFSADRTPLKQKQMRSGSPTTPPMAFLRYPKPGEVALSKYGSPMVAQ

[5] = target: T5, GST::Borr_(1–117) (Drosophila) (UniProt Q9VLD6); assay: as above
T5 sequence: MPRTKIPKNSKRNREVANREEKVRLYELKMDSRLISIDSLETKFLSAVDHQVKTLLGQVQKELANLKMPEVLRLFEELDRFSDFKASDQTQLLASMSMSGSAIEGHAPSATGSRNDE

[6] = target: T6, GST::Borr_(1–249) (Drosophila) (UniProt Q9VLD6); assay: as above
T6 sequence: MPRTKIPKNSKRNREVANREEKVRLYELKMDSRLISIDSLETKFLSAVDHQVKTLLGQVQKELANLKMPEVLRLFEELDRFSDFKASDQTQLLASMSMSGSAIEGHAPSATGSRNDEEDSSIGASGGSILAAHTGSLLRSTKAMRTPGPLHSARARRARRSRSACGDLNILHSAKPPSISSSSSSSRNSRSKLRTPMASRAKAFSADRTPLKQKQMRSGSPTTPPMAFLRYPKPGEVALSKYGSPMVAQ

PtA::Borealin (human) = target: T7, PtA::Borealin (human) (UniProt Q53HL2); assay: pull-down; PtA pull-down from extracts of unsynchronized HeLa cells transfected for 48 h with PtA::Borealin or PtA alone and a GFP-tagged CHMP4 protein or GFP alone; rabbit IgG Dynabeads; Western blot for GFP and PtA
T7 sequence: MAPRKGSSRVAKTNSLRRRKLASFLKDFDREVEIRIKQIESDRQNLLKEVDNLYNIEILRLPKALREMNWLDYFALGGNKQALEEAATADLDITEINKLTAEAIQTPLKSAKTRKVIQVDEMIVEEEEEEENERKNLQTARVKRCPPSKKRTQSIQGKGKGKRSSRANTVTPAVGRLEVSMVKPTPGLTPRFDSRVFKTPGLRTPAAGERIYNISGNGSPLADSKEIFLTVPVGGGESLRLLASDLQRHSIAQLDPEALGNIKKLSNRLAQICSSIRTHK

[7] = target: T8, GST::Borealin (GST::Bor) (human) (UniProt Q53HL2); assay: pull-down; GST-tagged protein purified from bacteria on glutathione sepharose beads; partner translated in vitro and [35S] methionine-labelled; NET-N+ buffer (50 mM Tris-HCl pH 7.4, 150 mM NaCl, 5 mM EDTA, 0.5% NP-40), in ice 30 min; five washes; exposed to X-ray film; only the target purified
T8 sequence: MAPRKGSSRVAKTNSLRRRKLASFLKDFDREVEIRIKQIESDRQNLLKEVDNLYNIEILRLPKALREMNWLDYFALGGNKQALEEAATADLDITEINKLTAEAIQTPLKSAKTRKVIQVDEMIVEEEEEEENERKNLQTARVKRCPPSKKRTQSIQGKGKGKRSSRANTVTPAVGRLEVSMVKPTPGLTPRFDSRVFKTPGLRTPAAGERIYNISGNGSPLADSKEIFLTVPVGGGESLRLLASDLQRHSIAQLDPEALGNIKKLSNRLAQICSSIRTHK

[8] = target: T9, GST::Borealin central region (residues 110–207) (human) (UniProt Q53HL2); assay: as above
T9 sequence: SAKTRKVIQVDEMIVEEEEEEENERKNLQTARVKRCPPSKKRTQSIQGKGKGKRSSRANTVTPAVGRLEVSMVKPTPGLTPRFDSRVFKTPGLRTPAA

[9] = target: T10, GST::CHMP4C_(1–121) (human) (UniProt Q96CF2); assay: as above
T10 sequence: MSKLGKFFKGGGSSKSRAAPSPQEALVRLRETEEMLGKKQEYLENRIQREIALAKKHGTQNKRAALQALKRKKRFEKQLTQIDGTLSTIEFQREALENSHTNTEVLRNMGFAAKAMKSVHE

[10] = target: T11, GST::CHMP4C_(122–233) (human) (UniProt Q96CF2); assay: as above
T11 sequence: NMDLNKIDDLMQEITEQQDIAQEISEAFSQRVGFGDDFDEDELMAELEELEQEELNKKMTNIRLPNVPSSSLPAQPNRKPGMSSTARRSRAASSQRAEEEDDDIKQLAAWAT

B1: Shrb translated and radio-labelled in vitro (protein, UniProt Q8T0Q4 1-226)
chain: MSFFGKMFGGKKEVAPTTGEAIQKLRETENMLIKKQEFLEAKIEDELNIARKNASKNKRVALQALKKKKRLEKQLQQIDGTLSTIEMQREALESANTNTAVLTTMKNAADALKRAHQNMDVDKVHDMMDDIAEQQDVAREISDAISNPVAFGADLDDEDLERELDELEQENFDKEIIGIPEPTPTLPEAPTEDLPEKAKEKKKATTTTAVEDDDDPDMKQLLSWSN
modifications: [35S] methionine-labelled
Which binding [1] does the source give for B1 here?
The binding was “binds”.

What about the binding [2] of the same binder?
The binding was “binds”.

And the binding [3]?
Its binding is “no binding”.

And the binding [4]?
The binding was “no binding”.

What about the binding [5] of the same binder?
The binding was “no binding”.

And the binding [6]?
The binding was “binds”.

B2: GFP::CHMP4A (protein, UniProt Q9BY43 1-222)
chain: MSGLGRLFGKGKKEKGPTPEEAIQKLKETEKILIKKQEFLEQKIQQELQTAKKYGTKNKRAALQALRRKKRFEQQLAQTDGTLSTLEFQREAIENATTNAEVLRTMELAAQSMKKAYQDMDIDKVDELMTDITEQQEVAQQISDAISRPMGFGDDVDEDELLEELEELEQEELAQELLNVGDKEEEPSVKLPSVPSTHLPAGPAPKVDEDEEALKQLAEWVS
How did the binding (PtA::Borealin (human)) turn out when B2 was run?
The binding was “binds”.

B3: GFP::CHMP4B (protein, UniProt Q9H444 1-224)
chain: MSVFGKLFGAGGGKAGKGGPTPQEAIQRLRDTEEMLSKKQEFLEKKIEQELTAAKKHGTKNKRAALQALKRKKRYEKQLAQIDGTLSTIEFQREALENANTNTEVLKNMGYAAKAMKAAHDNMDIDKVDELMQDIADQQELAEEISTAISKPVGFGEEFDEDELMAELEELEQEELDKNLLEISGPETVPLPNVPSIALPSKPAKKKEEEDDDMKELENWAGSM
B3 was tested. Which binding (PtA::Borealin (human)) did it give?
Its binding is “binds”.

B4: CHMP4A translated and radio-labelled in vitro (protein, UniProt Q9BY43 1-222)
chain: MSGLGRLFGKGKKEKGPTPEEAIQKLKETEKILIKKQEFLEQKIQQELQTAKKYGTKNKRAALQALRRKKRFEQQLAQTDGTLSTLEFQREAIENATTNAEVLRTMELAAQSMKKAYQDMDIDKVDELMTDITEQQEVAQQISDAISRPMGFGDDVDEDELLEELEELEQEELAQELLNVGDKEEEPSVKLPSVPSTHLPAGPAPKVDEDEEALKQLAEWVS
modifications: [35S] methionine-labelled
B4 was tested. Which binding [7] did it give?
The binding was “binds”.

B5: CHMP4B translated and radio-labelled in vitro (protein, UniProt Q9H444 1-224)
chain: MSVFGKLFGAGGGKAGKGGPTPQEAIQRLRDTEEMLSKKQEFLEKKIEQELTAAKKHGTKNKRAALQALKRKKRYEKQLAQIDGTLSTIEFQREALENANTNTEVLKNMGYAAKAMKAAHDNMDIDKVDELMQDIADQQELAEEISTAISKPVGFGEEFDEDELMAELEELEQEELDKNLLEISGPETVPLPNVPSIALPSKPAKKKEEEDDDMKELENWAGSM
modifications: [35S] methionine-labelled
For B5, which binding [7] is on record?
Its binding is “binds”.

B6: CHMP4C translated and radio-labelled in vitro (protein, UniProt Q96CF2 1-233)
chain: MSKLGKFFKGGGSSKSRAAPSPQEALVRLRETEEMLGKKQEYLENRIQREIALAKKHGTQNKRAALQALKRKKRFEKQLTQIDGTLSTIEFQREALENSHTNTEVLRNMGFAAKAMKSVHENMDLNKIDDLMQEITEQQDIAQEISEAFSQRVGFGDDFDEDELMAELEELEQEELNKKMTNIRLPNVPSSSLPAQPNRKPGMSSTARRSRAASSQRAEEEDDDIKQLAAWAT
modifications: [35S] methionine-labelled
Which binding [8] does the source give for B6 here?
Its binding is “binds”.

B7: Borealin translated and radio-labelled in vitro (protein, UniProt Q53HL2 1-280)
chain: MAPRKGSSRVAKTNSLRRRKLASFLKDFDREVEIRIKQIESDRQNLLKEVDNLYNIEILRLPKALREMNWLDYFALGGNKQALEEAATADLDITEINKLTAEAIQTPLKSAKTRKVIQVDEMIVEEEEEEENERKNLQTARVKRCPPSKKRTQSIQGKGKGKRSSRANTVTPAVGRLEVSMVKPTPGLTPRFDSRVFKTPGLRTPAAGERIYNISGNGSPLADSKEIFLTVPVGGGESLRLLASDLQRHSIAQLDPEALGNIKKLSNRLAQICSSIRTHK
modifications: [35S] methionine-labelled
For B7, which binding [9] is on record?
The binding was “binds”.

And the binding [10]?
The binding was “no binding”.
